# Data: paper PMC4336329 (PLoS ONE, 2015)
# The campaign covered roughly 310,000 compounds. About 2,200 (0.71%) showed an effect of 50% or more. The effect is printed as a negative number. The list shows a part of the results.
# Target: human ether-à-go-go-related gene (hERG) potassium channel (human, UniProt Q12809)
# Assay: primary screen, population patch clamp on CHO cells stably expressing hERG
# Sequence of human ether-à-go-go-related gene (hERG) potassium channel (Q12809 whole entry, looked up): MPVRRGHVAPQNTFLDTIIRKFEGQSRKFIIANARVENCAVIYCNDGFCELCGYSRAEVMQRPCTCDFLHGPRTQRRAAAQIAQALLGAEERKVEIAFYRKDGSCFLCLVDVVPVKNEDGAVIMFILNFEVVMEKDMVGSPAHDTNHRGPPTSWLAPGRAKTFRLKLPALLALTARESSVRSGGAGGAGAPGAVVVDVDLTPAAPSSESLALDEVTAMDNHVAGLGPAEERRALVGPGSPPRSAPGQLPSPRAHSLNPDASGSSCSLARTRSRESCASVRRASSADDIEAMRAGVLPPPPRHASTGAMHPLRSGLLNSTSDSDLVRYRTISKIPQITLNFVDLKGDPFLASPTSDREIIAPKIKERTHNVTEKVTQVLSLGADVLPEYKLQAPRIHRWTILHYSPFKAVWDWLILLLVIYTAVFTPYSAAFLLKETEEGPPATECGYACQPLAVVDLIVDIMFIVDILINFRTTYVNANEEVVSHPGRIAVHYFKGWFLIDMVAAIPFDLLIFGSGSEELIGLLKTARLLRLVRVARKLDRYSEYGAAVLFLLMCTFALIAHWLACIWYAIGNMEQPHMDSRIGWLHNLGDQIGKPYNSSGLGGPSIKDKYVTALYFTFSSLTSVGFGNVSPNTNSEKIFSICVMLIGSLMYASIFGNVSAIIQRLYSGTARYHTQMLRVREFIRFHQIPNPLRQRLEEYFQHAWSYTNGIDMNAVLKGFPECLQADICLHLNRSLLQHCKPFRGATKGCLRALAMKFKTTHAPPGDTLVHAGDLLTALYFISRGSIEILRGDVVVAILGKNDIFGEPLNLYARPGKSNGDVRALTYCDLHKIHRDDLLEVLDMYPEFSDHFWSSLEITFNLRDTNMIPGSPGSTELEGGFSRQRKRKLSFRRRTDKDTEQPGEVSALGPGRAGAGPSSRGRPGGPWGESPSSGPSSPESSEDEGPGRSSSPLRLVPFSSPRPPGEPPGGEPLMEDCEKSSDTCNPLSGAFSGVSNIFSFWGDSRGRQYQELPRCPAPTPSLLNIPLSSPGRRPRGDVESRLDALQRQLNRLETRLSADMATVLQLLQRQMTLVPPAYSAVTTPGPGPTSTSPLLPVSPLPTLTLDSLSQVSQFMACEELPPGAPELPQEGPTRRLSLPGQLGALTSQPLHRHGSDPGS
row,Structure (SMILES),"hERG current change (%, negative = inhibition) at 1uM [%]"
1,CC1CCc2cccc3c(O)cc(=O)n1c23 (stereo not drawn),13.1
2,COC(=O)c1[nH]c2ccc(C)cc2c1NS(=O)(=O)c1ccc(F)cc1,5.82
3,CCN1CCN(c2ccc(S(=O)(=O)N3CCCCC3)cc2NC(=O)COc2ccc(Cl)c(C)c2)CC1,-3.72
4,CCc1nnc(SCc2cccc(F)c2)nc1CC,6.68
5,CC(C)c1nc(CNC(=O)c2cc(COc3c(F)cccc3F)on2)cs1,0.197
6,O=C(CSc1nnnn1C1CCCC1)Nc1ccc2c(c1)OCO2,14.3
7,c1ccc(CCN2CN(CCCN3CCOCC3)c3nc4ccccc4n3C2)cc1,-14.4
8,O=C(Nc1ccc(-n2nncc2-c2ccco2)cc1)c1cccc(F)c1,1.86
9,COc1ccc(-c2nc(CCNS(=O)(=O)c3ccc4c(c3)OCCO4)cs2)cc1,-15.7
10,Cl.Cn1nnnc1SCCNCc1cc(Cl)ccc1OCc1ccccc1,-11.5
11,O=C(CN1CCC(n2nnc3cc(F)ccc32)CC1)N1CCCc2ccccc21,-37.2
12,CCCCCn1c(CN2CCN(C)CC2)nc2c1c(=O)n(C)c(=O)n2C,-5.24
13,CCCN(CCC)CC(O)COc1ccc2c(c1)OCO2.Cl (stereo not drawn),-14.7
14,O=C(Nc1cccc2nsnc12)c1ccc(-c2cccc(Cl)c2)o1,10.3
15,CC(C)c1nc2ccccc2c2nnc(SCC(=O)NCc3ccco3)n12,3.02
16,O=C(Nc1ccon1)Nc1ccc(F)cc1F,11.3
17,COc1ccc(/C=N/N2CCN(c3ccccc3)CC2)cc1Br,11.2
18,NC(=O)Nc1ccc(Oc2ncc(C(F)(F)F)cc2Cl)cc1,16.2
19,O=C(Nc1cc(Cl)cc(Cl)c1)C(c1ccccc1)N1CCCCC1 (stereo not drawn),1.7
20,COC(=O)c1sc(S(=O)(=O)Nc2ccc(C)cc2)c(C(=O)OC)c1C,14.4
21,O=C(Nc1nnc(-c2ccco2)o1)c1ccc(N2C(=O)CCC2=O)cc1,14.3
22,O=C(Nc1cc(Cl)cc(Cl)c1)C1C2C=CC3(O2)C1C(=O)N(CCCN1CCOCC1)C3C(=O)NC1CCCCC1 (stereo not drawn),10.6
23,CCN1CCN(c2ccc(S(=O)(=O)N3CCCCC3)cc2NC(=O)/C=C/c2ccc(OC(F)F)cc2)CC1,-1.19

row,Structure (SMILES),"hERG current change (%, negative = inhibition) at 1uM [%]"
1,COc1c(C)cccc1C(=O)NCCCNC(=O)c1ccc(C)nc1,7.26
2,COc1ccc(S(=O)(=O)Cc2ccc(C(=O)NCc3cccnc3)o2)cc1,2.58
3,O=C(O)/C=C/c1cn(Cc2ccccc2)nc1-c1cccs1,15.7
4,CN(C)CC/C=C1\c2ccccc2CSc2ccccc21.Cl,-6.36
5,Nc1nc(-c2cccc(F)c2)cs1,14.4
6,CCOCC(=O)N1CCCC(C(=O)OCC)C1 (stereo not drawn),4.7
7,CCc1ccc(NC(=O)CCNC(=O)Cn2cnc3ccccc3c2=O)cc1,13.8
8,Cc1ccc(-c2csc(N/N=C/C=C/c3ccccc3)n2)cc1,4.66
9,COc1ccc(NC(=O)c2onc(C)c2Cl)cc1OC,-0.133
10,COc1ccc(-c2c3c(=O)n(C)c(=O)n(C)c3cn2Cc2cccnc2)cc1,3.91
11,COc1ccc(-n2c(Cc3cccn3C)nnc2SCC(=O)N2CCCc3ccccc32)cc1,5.9
12,COC(=O)N[C@@H]1C[C@H]2[C@@H]3CC[C@H]4C[C@@H](OC)CC[C@]4(C)[C@H]3CC[C@@]12C,20.7
13,O=C(Cn1c(=O)n(-c2ccccc2)c(=O)c2sccc21)NCc1ccccc1,11.5
14,CC(=O)N1CCc2cc(S(=O)(=O)NCCC(=O)NC3CCCCCC3)ccc21,-7.07
15,Cc1cc(OCC(=O)NCCN2CCOCC2)cc(C)c1Br,5.37
16,CCCCC(=O)c1c(C)cc(C)[nH]c1=O,15.7
17,COc1ccc(Nc2nc(OC)nc(OC)n2)cc1,3.17
18,COc1cccc(C(=O)NCC(=O)N/N=C/c2cccnc2)c1,13.9
19,CCCCCCSc1cc(-c2nc3ccc(Cl)cn3c2NCCCC)ccc1OC.O=C(O)C(F)(F)F,11.8
20,COc1ccc(NC(=O)COC(=O)C2CC(=O)N(c3ccc(OC(C)C)cc3)C2)cc1 (stereo not drawn),8.88
21,O=C(CSc1ccc2nnc(-c3ccncc3)n2n1)Nc1ccccc1F,6.75
22,O=C(O)c1cccc(-n2c(O)c(C=C3N=c4ccccc4=N3)sc2=S)c1,13.3
23,Cc1cc2c3c([nH]c2cc1S(=O)(=O)NCc1ccc(CN2CCCCCC2)o1)CC(C)(C)CC3=O,12.1

row,Structure (SMILES),"hERG current change (%, negative = inhibition) at 1uM [%]"
1,Cn1c(=O)oc2cc(S(=O)(=O)N3CCC(C(=O)NCc4ccccc4Cl)CC3)ccc21,-0.101
2,COc1ccc(-c2ccc(NCCC3=CCCCC3)nn2)cc1OC,20.6
3,O=C(Oc1ccccc1[N+](=O)[O-])c1cccnc1,4.97
4,O=C(NCCS(=O)(=O)N1CCN(c2ccccc2)CC1)c1ccco1,3.08
5,COc1ccccc1N1CCN(c2nc3c(C)cccn3c(=O)c2C=O)CC1,-9.61
6,Cc1ccc(S(=O)(=O)CC(=O)Nc2nccs2)cc1,17
7,Cn1c(CCC(=O)OCC(=O)NCc2ccccc2Cl)nc(=O)c2ccccc21,13.4
8,COc1cccc(/C=N/n2c(N)nc3ccccc32)c1OC,11.8
9,COCC1CCN(C(=O)C2CCC(=O)N(Cc3ccc(Cl)cc3)C2)CC1 (stereo not drawn),13.5
10,COc1ccc(NC(=O)C(CC(C)C)NC(=O)c2ccccc2C)cn1 (stereo not drawn),1.14
11,CC1(C)NC(=O)N(CCCCOc2cccc(C(F)(F)F)c2)C1=O,3.5
12,CC(=O)Oc1ccc(C(=O)Nc2nccs2)cc1,8.57
13,O=C(N/N=C/c1ccc[nH]1)c1ccc(O)cc1,18.9
14,Cc1ccc(C)n1-c1cccc(N)c1,-12.2
15,Cc1cc(=O)oc2cc(NC(=O)CN3C(=O)NC(C)(c4ccccc4)C3=O)ccc12 (stereo not drawn),14.6
16,CC(C)(C)c1ccc(NC(=O)CN2C(=O)NC(C)(C3CC3)C2=O)cc1 (stereo not drawn),-12.6
17,Cc1cccc(C)c1N1C(=O)[C@@H]2C(c3ccccc3Cl)=NO[C@@H]2C1=O,10.1
18,COc1ccc(-n2nc(C(=O)NCC(=O)Nc3cc(C)ccc3OC)c3ccccc3c2=O)c(OC)c1,9.36
19,O=C(N=C1SC2CS(=O)(=O)CC2N1c1ccc(F)c(Cl)c1)C1CC1 (stereo not drawn),15.1
20,CCOC(=O)CN1C(=O)c2ccccc2Sc2ncccc21,10.1
21,CN1CCCC(OC(=O)c2cccc(Cl)c2)C1.Cl (stereo not drawn),6.78
22,COc1ccc(S(=O)(=O)N(CCCN2CCOCC2)Cc2cccc(OC)c2OC)cc1,10.4
23,CCC(O)(CC)C(=O)N=Nc1c(O)[nH]c2ccccc12,14.2

row,Structure (SMILES),"hERG current change (%, negative = inhibition) at 1uM [%]"
1,CC(=O)Nc1cccc(C(=O)OC(C)C(=O)NCc2ccc3c(c2)OCO3)c1 (stereo not drawn),11.2
2,COc1ccc(CNC(=O)Cn2cccc2C(=O)c2ccccc2)cc1,2.79
3,CCOc1cc(C2C(C#N)=C(N)OC(C)=C2C(C)=O)c(Br)c(Br)c1OC(C)C (stereo not drawn),14.6
4,CC(NC(=O)CCc1c[nH]c2ccccc12)c1ccccc1 (stereo not drawn),23.2
5,COC(=O)[C@@H](NC(=O)Nc1ccc(C(C)=O)cc1)C(C)C,8.02
6,COc1nc(Nc2nc3ccccc3c(=O)[nH]2)nc2ccc(C)cc12,-0.611
7,COc1cccc(OCc2cc(C(=O)N(C)Cc3nc(C)cs3)no2)c1,7.39
8,CCC(C)c1ccc(NC(=O)C/C(C)=N/NC(=O)c2cnccn2)cc1 (stereo not drawn),-0.845
9,CC(=O)c1cccc(S(=O)(=O)NCC2CCCCC2)c1,-4.73
10,O=C(CSc1ncn[nH]1)Nc1ccccc1-c1ccccc1,12.3
11,S=C(NC1CCCCC1)NN1CCOCC1,6.84
12,CC1(C)Cc2ccccc2-c2nc(NN)[nH]c(=O)c21,18.1
13,COc1cc(CN2CCN(C(=O)CC(C)C)CC2)c([N+](=O)[O-])cc1OC,11.2
14,Cc1cc(=O)[nH]c(SCC(=O)Nc2ccc(Br)cc2)n1,8.23
15,CCCCCCCCCCCCN1[C@@H](CC(C)=O)c2cc(F)ccc2S1(=O)=O,9.12
16,CCC(=O)N(Cc1cc(=O)[nH]c2ccccc12)c1cccc(C)c1,5.99
17,O=S(=O)(c1ccc(N2CCN(c3ccc(F)cc3)CC2)cc1)N1CCCC1,6.27
18,CC(C)c1cc(=O)n2[nH]c(SCc3ccc(Cl)cc3)nc2n1,27.8
19,COc1cc(O)oc1C=Nc1ccc(Cl)cc1,10.9
20,O=S(=O)(NCCN1CCOCC1)c1ccc(Oc2ccccc2Cl)cc1,5.88
21,CCCCCn1c(CN2CCN(Cc3ccccc3)CC2)nc2c1c(=O)[nH]c(=O)n2C,-72.5
